Data published in the supplement of paper PMC4604168 (melanoma cell lines).
The other results are listed elsewhere or left out. Single values are uncertain, as repeats are few or missing.

Legend:
Experiment in all cases: cell count relative to DMSO control; melanoma cells; higher = more viable cells
Details in all cases: library dose: low library concentration; 72 h
MZ2-MEL = test system: MZ2-MEL
MeWo = test system: MeWo
RPMI7951 = test system: RPMI7951
RVH-421 = test system: RVH-421
SkMel28 = test system: SkMel28
SkMel2 = test system: SkMel2
SkMel30 = test system: SkMel30
SkMel5 = test system: SkMel5
UACC257 = test system: UACC257
UACC62 = test system: UACC62
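Also: cell number obtained by counting DAPI-stained nuclei in high-throughput microscope images with image analysis software, screen run in 1,536-well plates.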

| Compound | cell count (MZ2-MEL) [%] | cell count (MeWo) [%] | cell count (RPMI7951) [%] | cell count (RVH-421) [%] | cell count (SkMel28) [%] | cell count (SkMel2) [%] | cell count (SkMel30) [%] | cell count (SkMel5) [%] | cell count (UACC257) [%] | cell count (UACC62) [%] |
| --- | --- | --- | --- | --- | --- | --- | --- | --- | --- | --- |
| O=C(O)[C@@H]1[O][Sb](=[O])([O][Sb]2(=[O])[O][C@H]([C@H](O)CO)[C@H](O)[C@H](C(=O)O)[O]2)[O][C@H]([C@H](O)CO)[C@@H]1O (stereo not given in full) [stibogluconate] + C[C@@H]1CCN(C(=O)CC#N)C[C@@H]1N(C)c1ncnc2[nH]ccc12 [CP690550] (first compound 2 µM, partner dose 1 µM) | 107 | 97 | 89.4 | 94.7 | 90.2 | 102 | 111 | 103 | 99.9 | 103 |
| O=C(O)[C@@H]1[O][Sb](=[O])([O][Sb]2(=[O])[O][C@H]([C@H](O)CO)[C@H](O)[C@H](C(=O)O)[O]2)[O][C@H]([C@H](O)CO)[C@@H]1O (stereo not given in full) [stibogluconate] + COc1ccc2c(c1)CCC1C2CCC2(C)C(NCCCCCCN3C(=O)C=CC3=O)CCC12 [U73122] (first compound 2 µM, partner dose 0.4 µM) | 96.3 | 101 | 84.5 | 113 | 99.7 | 103 | 102 | 128 | 115 | 126 |
| Cn1nnc2c(C(N)=O)ncn2c1=O [temozolomide] + CO[C@@H]1[C@H](N(C)C(=O)c2ccccc2)C[C@H]2O[C@]1(C)n1c3ccccc3c3c4c(c5c6ccccc6n2c5c31)C(=O)NC4 [Midostaurin] (first compound 2 µM, partner dose 0.08 µM) | 99 | 83.7 | 98.3 | 103 | 85.3 | 93.1 | 94.3 | 98.9 | 93.2 | 84.7 |
| O=C(Nc1cc(C(F)(F)F)cc(C(F)(F)F)c1)c1cc(Cl)ccc1O + Oc1cc(-c2nc(-c3ccccc3)[nH]c2-c2ccncc2)ccc1Cl [L779450] (first compound 0.016 µM, partner dose 0.2 µM) | 77.8 | 101 | 115 | 84.2 | 82.7 | 87 | 90.6 | 111 | 84.4 | 64.4 |
| O=C(O)[C@@H]1[O][Sb](=[O])([O][Sb]2(=[O])[O][C@H]([C@H](O)CO)[C@H](O)[C@H](C(=O)O)[O]2)[O][C@H]([C@H](O)CO)[C@@H]1O (stereo not given in full) [stibogluconate] + O=C1NC(=O)/C(=C/c2ccc(-c3ccc(F)cc3O)o2)S1 [AS252424] (first compound 2 µM, partner dose 1 µM) | 93.1 | 98.1 | 82.8 | 117 | 102 | 101 | 83.7 | 107 | 109 | 105 |
| O=C(O)c1ccc2c(c1)nc(Nc1cccc(Cl)c1)c1ccncc12 + CO[C@@H]1[C@H](N(C)C(=O)c2ccccc2)C[C@H]2O[C@]1(C)n1c3ccccc3c3c4c(c5c6ccccc6n2c5c31)C(=O)NC4 [Midostaurin] (first compound 0.4 µM, partner dose 0.08 µM) | 88.7 | 77.6 | 94.5 | 95.5 | 112 | 71.6 | 61.9 | 104 | 88 | 91.8 |
| O=C(O)c1ccc2c(c1)nc(Nc1cccc(Cl)c1)c1ccncc12 + CN(C)S(=O)(=O)c1ccc2c(c1)/C(=C/c1cc3c([nH]1)CCCC3)C(=O)N2 [SU6656] (first compound 0.4 µM, partner dose 0.4 µM) | 95.2 | 83.7 | 101 | 92.1 | 88.1 | 114 | 95.2 | 80.6 | 93.7 | 88.4 |
| Cn1nnc2c(C(N)=O)ncn2c1=O [temozolomide] + C[C@@H]1CCN(C(=O)CC#N)C[C@@H]1N(C)c1ncnc2[nH]ccc12 [CP690550] (first compound 2 µM, partner dose 1 µM) | 94.6 | 89 | 109 | 101 | 87.2 | 105 | 81.5 | 108 | 98.4 | 85.3 |
| O=C(O)c1ccc2c(c1)nc(Nc1cccc(Cl)c1)c1ccncc12 + OCCn1cc(-c2cnc3nnn(Cc4ccc5ncccc5c4)c3n2)cn1 [PF04217903] (first compound 0.4 µM, partner dose 1 µM) | 99.3 | 97.7 | 129 | 117 | 104 | 106 | 93.1 | 104 | 103 | 108 |
| O=C(O)[C@@H]1[O][Sb](=[O])([O][Sb]2(=[O])[O][C@H]([C@H](O)CO)[C@H](O)[C@H](C(=O)O)[O]2)[O][C@H]([C@H](O)CO)[C@@H]1O (stereo not given in full) [stibogluconate] + c1cc(-c2cnn3cc(-c4ccc(OCCN5CCCCC5)cc4)cnc23)ccn1 [Dorsomorphin] (first compound 2 µM, partner dose 0.4 µM) | 97.6 | 113 | 85.4 | 115 | 96.4 | 113 | 110 | 89.5 | 94 | 107 |
| Cn1nnc2c(C(N)=O)ncn2c1=O [temozolomide] + OCCn1cc(-c2cnc3nnn(Cc4ccc5ncccc5c4)c3n2)cn1 [PF04217903] (first compound 2 µM, partner dose 1 µM) | 94.7 | 91.5 | 94 | 72.8 | 79 | 96.6 | 88.4 | 96.9 | 115 | 84.3 |
| Cc1cc(N2CCOCC2)cc2[nH]c(-c3c(NC[C@@H](O)c4cccc(Cl)c4)cc[nH]c3=O)nc12 + CN(C)S(=O)(=O)c1ccc2c(c1)/C(=C/c1cc3c([nH]1)CCCC3)C(=O)N2 [SU6656] (first compound 0.2 µM, partner dose 0.4 µM) | 98.8 | 83 | 108 | 76.6 | 83.2 | 77.1 | 83.1 | 71.4 | 58.1 | 72.2 |
| O=C(O)[C@@H]1[O][Sb](=[O])([O][Sb]2(=[O])[O][C@H]([C@H](O)CO)[C@H](O)[C@H](C(=O)O)[O]2)[O][C@H]([C@H](O)CO)[C@@H]1O (stereo not given in full) [stibogluconate] + O=C(CCCCCCC(=O)Nc1ccccc1)NO [vorinostat] (first compound 2 µM, partner dose 0.08 µM) | 104 | 89.4 | 116 | 112 | 73.6 | 103 | 110 | 107 | 102 | 91.6 |
| Cn1nnc2c(C(N)=O)ncn2c1=O [temozolomide] + NC(=O)Nc1cc(-c2cccc(F)c2)sc1C(=O)N[C@H]1CCCNC1 [AZD7762] (first compound 2 µM, partner dose 0.02 µM) | 91.2 | 114 | 115 | 122 | 106 | 122 | 63.3 | 105 | 117 | 80.8 |
| O=C(O)[C@@H]1[O][Sb](=[O])([O][Sb]2(=[O])[O][C@H]([C@H](O)CO)[C@H](O)[C@H](C(=O)O)[O]2)[O][C@H]([C@H](O)CO)[C@@H]1O (stereo not given in full) [stibogluconate] + COc1cc(N2CCC(N3CCN(C)CC3)CC2)ccc1Nc1ncc(Cl)c(Nc2ccccc2S(=O)(=O)C(C)C)n1 [NVP-TAE684] (first compound 2 µM, partner dose 0.08 µM) | 95.2 | 77.2 | 98.1 | 63.1 | 99.3 | 94.2 | 99.6 | 90.8 | 75.2 | 106 |
| O=C(Nc1cc(C(F)(F)F)cc(C(F)(F)F)c1)c1cc(Cl)ccc1O + NCC(=O)Nc1ccc(-n2nc(C(F)(F)F)cc2-c2ccc3c(ccc4ccccc43)c2)cc1 [OSU03012] (first compound 0.016 µM, partner dose 1 µM) | 81.6 | 57.3 | 100 | 85.8 | 72.6 | 58.9 | 50.5 | 89.9 | 86.6 | 78.1 |
| O=C(O)c1ccc2c(c1)nc(Nc1cccc(Cl)c1)c1ccncc12 + O=C(Nc1ccccc1)c1cc([N+](=O)[O-])ccc1Cl [GW9662] (first compound 0.4 µM, partner dose 2 µM) | 83.4 | 81.6 | 102 | 107 | 93.7 | 93.8 | 77.6 | 106 | 97.7 | 98.2 |
| O=C(Nc1cc(C(F)(F)F)cc(C(F)(F)F)c1)c1cc(Cl)ccc1O + CC(C)(C)c1cnc(CSc2cnc(NC(=O)C3CCNCC3)s2)o1 [SNS-032] (first compound 0.016 µM, partner dose 0.01 µM) | 102 | 106 | 92.8 | 104 | 93.5 | 103 | 81.2 | 116 | 81 | 88 |
| O=C(O)[C@@H]1[O][Sb](=[O])([O][Sb]2(=[O])[O][C@H]([C@H](O)CO)[C@H](O)[C@H](C(=O)O)[O]2)[O][C@H]([C@H](O)CO)[C@@H]1O (stereo not given in full) [stibogluconate] + O=c1cc(-c2cccc3c2Sc2ccccc2S3)oc(N2CCOCC2)c1 [KU55933] (first compound 2 µM, partner dose 1 µM) | 97.7 | 98.6 | 114 | 120 | 97 | 92.5 | 98.3 | 89.2 | 93.9 | 104 |
| O=C(O)c1ccc2c(c1)nc(Nc1cccc(Cl)c1)c1ccncc12 + CCCCCCCCCCCC1=C(O)C(=O)C=C(O)C1=O [Embelin] (first compound 0.4 µM, partner dose 1.2 µM) | 91.8 | 86.1 | 93.1 | 109 | 119 | 94.6 | 85.2 | 97.6 | 104 | 106 |
| O=C(Nc1cc(C(F)(F)F)cc(C(F)(F)F)c1)c1cc(Cl)ccc1O + CN(NC(=O)CC(=O)NN(C)C(=S)c1ccccc1)C(=S)c1ccccc1 [STA4783] (first compound 0.016 µM, partner dose 0.006 µM) | 97.9 | 103 | 96.4 | 113 | 95.1 | 104 | 84.4 | 96.2 | 88.4 | 92.7 |
